# About 800 (1.6%) of roughly 50,000 compounds showed an effect of 50% or more. This is one part of the list.
# Molecular target: Bcl-2-like protein 10 (Homo sapiens) (UniProt Q9HD36)
# Assay: TR3 peptide-Bcl-B binding displacers, biochemical primary FP assay, phenotype converters (AID 1240);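 note: 0% = Bcl-B with tracer peptide and DMSO and 100% = tracer peptide lacking Bcl-B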
# Conditions: GST-Bcl-B / FITC-TR3 peptide fluorescence polarization; stronger effect = higher value; compound at 3.75 mg/L
# Sequence of UniProt Q9HD36 (Q9HD36 whole entry, looked up): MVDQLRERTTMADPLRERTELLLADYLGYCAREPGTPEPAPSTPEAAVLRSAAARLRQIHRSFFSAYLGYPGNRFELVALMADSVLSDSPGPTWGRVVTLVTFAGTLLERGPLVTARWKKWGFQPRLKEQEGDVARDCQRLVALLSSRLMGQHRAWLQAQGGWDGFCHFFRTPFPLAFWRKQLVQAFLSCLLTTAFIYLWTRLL
row,SMILES,displacement
1,CCc1ccccc1NC(=O)CN(c1ccc(Oc2ccccc2)cc1)S(C)(=O)=O,-0.3%
2,CCN(C(=O)c1cc2cc(Cl)cc(Cl)c2oc1=O)c1ccccc1,13.8%
3,C=CCN(CC=C)C(=O)C(C)Oc1ccccc1 (stereo not given),8.3%
4,Cc1ccc(NC(=O)COc2ccc(Cl)cc2)c([N+](=O)[O-])c1,-0.3%
5,CC(NC(=O)C12CC3CC(CC(C3)C1)C2)C(=O)Nc1ccc(S(=O)(=O)Nc2nccs2)cc1 (stereo not given),15.9%
6,Cc1sc(NC(=O)c2ccc(F)cc2)c(C(=O)OC(C)C)c1C,1.6%
7,COc1ccc(CN2CCN(C3CCC(C)CC3)CC2)c(OC)c1 (stereo not given),-16.3%
8,COc1ccc(NC(=O)c2cccc(C)c2)cc1Cl,3%
9,Cc1nc2c(-c3ccccc3)c(C)nn2c(C(C)(C)C)c1C,5%
10,CC1=NN(c2ccccc2)C(=O)/C1=C/c1ccccc1OS(=O)(=O)c1ccccc1[N+](=O)[O-],17.4%
11,O=C(/C=C/c1ccc2c(c1)OCO2)n1nnc2ccccc21,7.1%
12,Cc1ccc(C(=O)N/C(=C\c2cccs2)C(=O)NCc2ccncc2)cc1,10.8%
13,Cc1cc(C)c(C(=O)/C(=C/c2cccc(Br)c2)c2ccccc2)c(=O)[nH]1,-13.3%
14,CC(=O)Nc1ccc(S(=O)(=O)N2c3ccccc3C(Nc3ccccc3)CC2C)cc1 (stereo not given),3%
15,O=C(NCCC1=CCCCC1)c1cccc([N+](=O)[O-])c1,-5.1%
16,CCOc1c(Cl)cc(/C=C2\C(=O)NC(=O)N(c3cc(C)cc(C)c3)C2=O)cc1OC,-12.2%
17,CCOc1ccccc1NC(=O)CCCOc1ccccc1,-0.8%
18,CCN(CC)C(=O)CN(c1ccc(C)cc1)S(=O)(=O)c1ccc(F)cc1,9%
19,Cn1nnc(NC(=O)c2ccccc2F)n1,8.5%
20,O=C(CCN1C(=O)c2ccccc2C1=O)Nc1ccc(F)c(Cl)c1,-10.7%
21,O=C1C(=Cc2cccc3ccccc23)C(=O)c2ccccc21,-4.8%
22,CC(C)C(=O)Nc1ccc2oc(-c3ccccc3Br)nc2c1,8.2%
23,O=C1N=C(c2ccccc2)S/C1=C\c1ccccc1,6.1%
24,Clc1ccc(-c2noc(-c3ccc(I)cc3)n2)cc1,-0.6%
25,O=C(CSc1nc2sc3c(c2c(=O)n1-c1ccc(Cl)cc1)CCC3)Nc1ccccc1,4.3%
26,O=[N+]([O-])c1cccc(CN2CCN(Cc3cccnc3)CC2)c1,-8.7%
27,Cc1ccc(SCC(=O)Nc2cccc3ncccc23)cc1,47.1%
28,O=C(CCN1C(=O)c2ccccc2C1=O)NCc1ccccn1,9.5%
29,COc1ccccc1CN1CCN(S(C)(=O)=O)CC1,15.4%
30,COc1cccc(NC(=O)CN(c2ccc(OC)c(Cl)c2)S(=O)(=O)c2ccccc2)c1,11.7%

# Source: PubChem BioAssay AID1240 (Sanford-Burnham Center for Chemical Genomics, 2008)
